The campaign covered roughly 310,000 compounds. About 14,000 (4.5%) showed an effect of 50% or more. Effects have a minus sign here. This is one part of the list.
These compounds were tested against human ether-à-go-go-related gene (hERG) potassium channel (human, UniProt Q12809) (assay: primary screen, population patch clamp on CHO cells stably expressing hERG).
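Note: peak tail current of the secondary pulse compared with the same well before compound.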

Chain of human ether-à-go-go-related gene (hERG) potassium channel (Q12809 whole entry, looked up): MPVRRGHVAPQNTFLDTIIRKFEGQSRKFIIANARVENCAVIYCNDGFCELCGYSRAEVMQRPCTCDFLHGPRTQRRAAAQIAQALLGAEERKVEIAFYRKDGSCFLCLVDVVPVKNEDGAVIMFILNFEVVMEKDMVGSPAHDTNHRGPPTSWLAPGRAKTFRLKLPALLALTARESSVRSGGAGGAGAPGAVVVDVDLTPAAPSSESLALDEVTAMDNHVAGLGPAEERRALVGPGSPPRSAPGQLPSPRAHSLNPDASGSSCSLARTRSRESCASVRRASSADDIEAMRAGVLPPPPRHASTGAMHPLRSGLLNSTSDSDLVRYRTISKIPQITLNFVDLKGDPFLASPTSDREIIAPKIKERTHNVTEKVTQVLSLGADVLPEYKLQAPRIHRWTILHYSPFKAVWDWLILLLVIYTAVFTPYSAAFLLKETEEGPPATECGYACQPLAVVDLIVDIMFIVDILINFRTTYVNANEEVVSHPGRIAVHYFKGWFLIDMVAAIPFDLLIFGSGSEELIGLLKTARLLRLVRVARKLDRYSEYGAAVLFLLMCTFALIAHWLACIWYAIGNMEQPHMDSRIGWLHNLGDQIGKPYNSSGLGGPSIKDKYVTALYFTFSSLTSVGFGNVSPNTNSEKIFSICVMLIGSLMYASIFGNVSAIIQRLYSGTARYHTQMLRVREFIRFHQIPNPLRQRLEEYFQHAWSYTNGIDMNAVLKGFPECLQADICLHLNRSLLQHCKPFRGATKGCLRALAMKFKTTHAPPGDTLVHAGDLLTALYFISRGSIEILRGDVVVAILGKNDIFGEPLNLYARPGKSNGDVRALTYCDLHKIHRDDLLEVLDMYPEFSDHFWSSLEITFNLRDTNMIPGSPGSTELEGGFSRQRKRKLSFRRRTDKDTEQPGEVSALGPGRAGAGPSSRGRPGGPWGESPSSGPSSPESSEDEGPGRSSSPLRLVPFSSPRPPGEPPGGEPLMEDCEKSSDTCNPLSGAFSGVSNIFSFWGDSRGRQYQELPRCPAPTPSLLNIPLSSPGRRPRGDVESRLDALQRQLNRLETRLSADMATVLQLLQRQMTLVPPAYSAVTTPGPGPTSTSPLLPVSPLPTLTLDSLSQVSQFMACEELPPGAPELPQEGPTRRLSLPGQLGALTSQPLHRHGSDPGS

Compound	hERG current change (%, negative = inhibition) at 10uM
CCOC(=O)N1CCC(N2C(=O)c3ccccc3C2Nc2cc(OC)c(OC)c(OC)c2)CC1 (stereo not shown)	-17.8%
Cc1ccc2nc(Cl)c(/C=N/n3c(C)nnc3C)cc2c1	7.28%
CC(Sc1ncn[nH]1)C(=O)NCc1ccccc1 (stereo not shown)	8.18%
CCOCc1c(C(=O)NCc2ccccc2CN2CCCC2)oc2ccccc12	-72%
O=C(c1ccc2c(=O)n3c(nc2c1)CCCCC3)N1CCN(c2ccc(Cl)cc2)CC1	-48%
COc1ccc2oc(-c3ccccc3)c(C(=O)O)c2c1	32.6%
O=C(NCc1cccnc1)C1CCN(S(=O)(=O)c2cccs2)CC1	-32.8%
COc1ccc(-c2c(NC(=O)c3ccco3)n(C)c3ccccc3c2=O)cc1	-4.88%
COc1cc(/C=N/n2cnnc2)ccc1OC(=O)c1ccncc1	8%
CC1(C)Cc2c(sc(N)c2C#N)C(C)(C)N1	11%
CC(=O)Nc1ccc(OS(=O)(=O)c2ccc([N+](=O)[O-])cc2)cc1	-12.1%
Cn1cnnc1SCc1ccc(C(=O)N=Nc2c(O)n(C)c3ccccc23)cc1	-7.53%
Cc1ccc(NC2CCCN(C(=O)c3ccccn3)C2)cc1C (stereo not shown)	18.4%
COc1ccc(CC(=O)Nc2c3c(nn2-c2cccc(C)c2C)CS(=O)C3)cc1OC (stereo not shown)	18.7%
CN(C)S(=O)(=O)c1cccc(NC(=S)NC2CCCCC2)c1	6.69%
Cc1ccc([N+](=O)[O-])cc1NC(=O)c1cccs1	18.4%
CCOC(=O)c1c(C)c(C(=O)NCc2ccco2)c(C)n1C	-12.1%
Cn1cnc(S(=O)(=O)N2CCN(c3ccc(F)cc3)CC2)c1	-10.1%
Oc1c(Br)cc(Br)cc1Br	14.1%
CN1CCc2nc(NC(=O)COc3ccc(C#N)cc3)sc2C1	-7.85%
O=C(Cn1c(CO)nc2ccccc21)NCc1ccc2c(c1)OCO2	5.15%
CCCCNC(=O)COC(=O)c1c2c(nc3ccccc13)/C(=C/c1cccs1)CC2	-1.07%

Compound	hERG current change (%, negative = inhibition) at 10uM
CCCCNC(=O)c1sc2ncnc(N3CCc4ccccc4C3)c2c1C	-50.5%
O=C(CCC1CC(=O)Nc2ccccc21)NCc1cccnc1 (stereo not shown)	3.52%
CC(=O)N[C@@H](CC(=O)N[C@H](CCC(=O)O)C(=O)O)C(=O)O	-2.64%
C=CCN(C(=O)c1csnn1)C(C(=O)NC1CCCC1)c1ccc(OC)cc1 (stereo not shown)	-6.72%
CCCc1ccc(-c2cc(C(=O)NN3CCOCC3)c3ccccc3n2)cc1	-3.8%
CCCN(CCC)C(C(=O)Nc1cccc(OC)c1)c1ccccc1 (stereo not shown)	-2.23%
CCC1(C)CC(C(N)=S)CCO1 (stereo not shown)	27.4%
CCN(CC)C(=O)c1ccc2c(=O)n(Cc3cccc(Br)c3)c(=S)[nH]c2c1	14%
O=C(CSc1nc(=O)n(CCCN2CCOCC2)c2c1CCC2)Nc1ccc(F)cc1F	-41.8%
COc1ccc(-n2nc(C(=O)Nc3nc4ccc(OC)cc4s3)c3ccccc3c2=O)c(OC)c1	5.1%
O=C(O)C1CCCN1C1=NS(=O)(=O)c2ccccc21 (stereo not shown)	0.0855%
Cc1nnc2n(c1=O)C(CS(=O)(=O)c1ccc3ccccc3c1)CS2 (stereo not shown)	1.28%
O=C(Nc1ccc(F)cc1)c1nc[nH]c1C(=O)Nc1ccccc1[N+](=O)[O-]	-4.96%
COc1ccc2nc(SCC(=O)NC3CCCCC3C)[nH]c2c1 (stereo not shown)	0.801%
Cc1ccc(C2CC(=O)C=C(O)C2)cc1 (stereo not shown)	3.29%
O=C(NC(=S)Nc1cccc(Cl)c1N1CCCCC1)c1ccco1	26%
COC(=O)c1c(N)n(CCCN2CCOCC2)c2nc3ccccc3nc12	-29.9%
CC(C)CCNC(=O)CNC(=S)N(Cc1ccccc1)Cc1cccnc1	-24.4%
COC(=O)c1cc(-c2ccccc2)sc1N	11%
Nc1c(C(=O)NCc2ccccc2)c2nc3ccccc3nc2n1-c1ccc2c(c1)OCO2	5.58%
CCc1sc(N(C(=O)Cc2ccccc2)c2cccc(F)c2)nc1-c1ccc(C)cc1	-7.18%
CN1C(CC(=O)c2ccccc2)CCCC1CC(O)c1ccccc1 (stereo not shown)	-82.4%

Compound	hERG current change (%, negative = inhibition) at 10uM
O=C(COC(=O)c1cc(=O)[nH]c2ccccc12)c1ccccc1	11.7%
O=C(COC(=O)C1CC(O)CN1S(=O)(=O)c1ccc(Cl)cc1)c1ccccc1 (stereo not shown)	-31.7%
CCc1nc(SCC(=O)Nc2ccc([N+](=O)[O-])cc2)n[nH]1	-6.52%
COc1ccc(S(=O)(=O)N2CCN=C2SCc2cccc(C)c2)cc1	17.8%
O=C(N/N=C/c1ccccc1)c1cc(=O)[nH]c2ccccc12	5.04%
C=C(C)C(=O)Nc1cccc(C2=NOC3(C2)C[C@@H](C(N)=O)N(C(=O)CC(c2ccccc2)c2ccccc2)C3)c1 (stereo partly shown)	-4.39%
CN1CCN(c2ccccc2NC(=O)c2ccc(-c3cccc([N+](=O)[O-])c3)o2)CC1	-51.8%
Cc1ccc(S(=O)(=O)N(CC(=O)O)Cc2ccco2)cc1	19.3%
CCCCn1c(/C=N/Nc2nc3ccccc3[nH]2)nc2ccccc21	-25.7%
Nc1nonc1-n1nnc(C(=O)N/N=C/c2ccccc2Cl)c1-c1ccccc1	22.9%
COc1ccccc1C(=O)NCC(=O)N/N=C/c1ccc([N+](=O)[O-])cc1	2.53%
CC(CCc1ccccc1)NC(=S)NC1CCCCC1 (stereo not shown)	12%
CCc1nnc2sc(-c3ccc(NC(=O)CSc4ccc(Cl)cc4)cc3)nn12	15%
CCOc1ccc2nc(SCC(=O)N3c4ccccc4Sc4ccccc43)c(C#N)cc2c1	9.47%
c1cnc(-c2noc(CN3CCN(C4C5CC6CC(C5)CC4C6)CC3)n2)cn1 (stereo not shown)	6.38%
Cc1ccccc1NC(=O)COC(=O)c1ccc(S(C)(=O)=O)c([N+](=O)[O-])c1	-0.568%
CCOc1cccc(N(C(=O)CNC(=O)c2ccco2)C(C(=O)NCC2CCCO2)c2ccccc2)c1 (stereo not shown)	1.86%
C#CCOCCOCCOCCNc1nc(N2CCN(C(=O)[C@H]([C@@H](C)O)n3cc(CCCC[NH3+])nn3)CC2)nc(N2CCN(C(=O)[C@H](CCCC[NH3+])n3cc(CC(C)O)nn3)CC2)n1.[Cl-] (stereo partly shown)	2.63%
O=C1c2cccc3cccc(c23)C(=O)N1CCCn1ccnc1	-22%
O=c1c2ccccc2nc(-c2ccc(Cl)c(Cl)c2)n1O	13.9%
OC1CCCCC1N1CCC(c2ccccc2)CC1 (stereo not shown)	-11.2%
CC(C)(C)NC(=O)C1CCN(c2ccc(S(=O)(=O)N3CCOCC3)cc2Cl)CC1	15.3%

Compound	hERG current change (%, negative = inhibition) at 10uM
O=C(Nc1ccccc1Sc1ccccc1)C1CCCO1 (stereo not shown)	-2.9%
COc1ccc(-c2csc(C3=C(O)CN(Cc4ccc(Cl)cc4)C3=N)n2)cc1OC	-2.48%
CCc1nn(C(CC)C(=O)NCc2cccc(OC)c2OC)c(=O)c2cc3occc3n12 (stereo not shown)	-8.06%
Cl.Clc1cccc(N2CCNCC2)c1	11.1%
CN(C)S(=O)(=O)c1cccc(CSCc2cccc(S(=O)(=O)N(C)C)c2)c1	22%
O=C(Cc1ccccc1)OCc1ccccc1	21%
Cc1ccc(-c2noc(=O)n2CC(=O)c2ccc(Cl)cc2)cc1	10.7%
COc1ccc(Cl)cc1NC(=O)CN(C)CC(=O)Nc1ccccc1N1CCOCC1.O=C(O)C(=O)O	-16.9%
COc1cccc(-c2cc(C(=O)N3CCN(Cc4ccc5c(c4)OCO5)CC3)on2)c1	-9.02%
NC(=O)c1nnn(-c2ccccc2)c1N	21.1%
CC(C)(C)C(=O)N/C(N)=N/c1nc2ccccc2o1	2.02%
CSc1ccc(NC(=O)NCCCN2CCN(c3ccccc3F)CC2)cc1	-55.1%
CCOC(=O)C1C(=O)CC(C)(O)C(C(=O)OCC)C1c1ccc(OCC)cc1 (stereo not shown)	-1.39%
CCOC(=O)C1(Cc2ccccc2)CCN(Cc2ccc3cc(NC(C)=O)ccc3n2)CC1	-68.7%
C[C@H](N=C1NS(=O)(=O)c2ccccc21)C(=O)OCc1cc([N+](=O)[O-])cc2c1OCOC2	-15.6%
CC(=O)n1cc(/C=N/NC(=O)c2ccc([N+](=O)[O-])cc2)c2ccccc21	6.88%
O=C(CSC1=NS(=O)(=O)c2cc(Cl)ccc2N1)c1ccc(Cl)cc1	9.08%
COC(=O)c1ccc(C23CC4(C2)[C@H](CN(Cc2ccc(C(F)(F)F)cc2)[C@@H]4c2ccccc2)C3c2ccc(Cl)nc2)cc1 (stereo partly shown)	14.8%
O=C(COc1cccnc1[N+](=O)[O-])NCCc1ccc(Cl)cc1	-0.0291%

Reference: publication PMC4336329 (PLoS ONE, 2015)
